According to PubChem BioAssay AID651820 (National Center for Advancing Translational Sciences (NCATS), 2012):
Hit rate of the full screen: of about 340,000 compounds, about 12,000 (3.5%) were called active. This list was built around the results that the source calls inconclusive (neither active nor inactive); the mix of calls is not that of the screen. Calls come from the whole dose curve; as a rule, active = well fitted inhibition curve with a large enough effect; inconclusive = small, poorly fitted or top-dose-only effect, or another doubt; inactive = no such curve, though single readings can be large or run the other way. No potency is given beside an inconclusive call; the fits are too rough.

assay: qHTS Assay for Inhibitors of Hepatitis C Virus (HCV); conditions: Huh7.5.1 HCVcc-Cre (HCVcc is cell-culture hepatitis C virus) infection, luciferase reporter, 44 h; series mostly up to 41.8 µM
In short: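 Compounds are dispensed onto cells plated 4 h earlier at 1,000 per well, with HCVcc-Cre virus (about 0.5 moi) added next. Following 44 h of culture, luminescent signal is measured for 15 sec after 15 min with substrate at room temperature.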
Potency is the fitted concentration of half-maximal effect; tags give direction and shape of the fitted curve.

Row | SMILES | Potency
1 | CN(C)CCOC(=O)C1(c2ccccc2)CCCC1 | inactive
2 | O=C(CSc1ccc(-c2ccccc2)nn1)Nc1ccc2c(c1)OCCO2 | inconclusive [inhibitor, single point]
3 | CCCCc1cc(=O)oc2cc(OCC(=O)NCc3ccccn3)ccc12 | inactive
4 | CC[n+]1ccc(/C=C2\Sc3ccccc3N2CCCS(=O)(=O)[O-])c2ccccc21 | inactive
5 | OCCCNCc1ccc(-c2ccccc2)cc1 | inconclusive [inhibitor, single point]
6 | C[C@]12c3[nH]c4ccc(Cl)cc4c3CCN1C(=O)[C@@H](CC(=O)NCC13CC4CC(CC(C4)C1)C3)C[C@@H]2C(=O)N1CCCCC1 | inconclusive [inhibitor, partial curve, poor fit]
7 | CC(=O)c1c(C)nn(CC(O)COc2ccc3ccccc3c2)c1C (configuration not stated) | inconclusive [inhibitor, single point]
8 | COc1ccc(-c2nn(-c3ccccc3)cc2/C=C2/SC(=S)N(CCC(=O)O)C2=O)c(C)c1 | inactive
9 | Cc1nc2ccccc2c2oc(C(=O)Nc3ccc(C(C)C)cc3)cc12 | inconclusive [inhibitor, partial curve]
10 | CC(=O)Nc1ccc(N=c2cc([N+](=O)[O-])cc(Cl)n2O)cc1 | active: 10 µM
11 | O=C1OCC(CO)(CO)N=C1NNc1ccccc1Cl | inactive
12 | C=CCn1c(O)c(C(CC)=NCCc2c[nH]c3ccccc23)c(=O)[nH]c1=O | inconclusive [inhibitor, single point]
13 | COc1ccc(Nc2nc(N)nc(CSC(=S)N3CCOCC3)n2)cc1 | inactive
14 | NC(N)=NCCCc1cn(CC(=O)N2CCNCC2)nn1 | inconclusive [inhibitor, single point]
15 | O=C(NCCCCO)c1ccc2c3c(cccc13)CC2 | inconclusive [inhibitor, single point]
16 | Cc1cc(=O)oc2cc(OC(C)C(=O)Nc3nccs3)ccc12 (configuration not stated) | inconclusive [inhibitor, single point]
17 | Cc1ccc(NN2C(=O)C=C(c3ccc(Cl)cc3)C2=O)cc1 | inactive
18 | COCCOc1ccc(C(F)(F)F)cc1NC(=O)COC(=O)c1c(C)noc1C | inactive
19 | COc1ccc(S(=O)(=O)CCC(=O)NCCc2ccc(C)cc2)cc1 | inactive
20 | C=CCn1c(CCNC(=O)c2cccs2)nnc1SCC(=O)Nc1cccc(C(C)=O)c1 | inactive
21 | N=c1ccn(Cc2cccc(Cl)c2)cc1 | active: 2.51 µM
22 | CCc1cc(CNC(=O)c2cccc(OC3CCN(S(C)(=O)=O)CC3)c2)on1 | inconclusive [inhibitor, partial curve]
